This note sets out measurements from the supplement of paper PMC8728848.

The sample as a whole holds a higher share of the strongest signals than the screen did.

Common to all, as to assay: glycan array binding signal (z-score within array); higher = stronger binding
Settings in all cases: glycan notation: IUPAC condensed, linker removed

For assay [1], the system named is GlcNAc(a1-3)Gal(b1-4)GlcNAc. The method, boiled down:
(§1)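 Glycan array binding is given as a within-array Z-score, which can be read as non-binding when negative. The arrays, 3228 of them, came from the Consortium for Functional Glycomics database and were retained only where the protein sequence was available. Z-scores were averaged across arrays of the same protein sequence at different concentrations or buffers and across linkers.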

The subject of assay [2] is GlcNAc(a1-4)Gal(b1-4)GlcNAc(b1-3)Gal(b1-4)Glc. The method, boiled down: as §1
Assay [3] concerns GlcNAc(a1-4)Gal(b1-4)GlcNAc(b1-3)Gal(b1-4)[Fuc(a1-3)]GlcNAc(b1-3)Gal(b1-4)[Fuc(a1-3)]GlcNAc. Summed up: as §1
Assay [4] has as its system GlcNAc(a1-4)Gal(b1-4)GlcNAc. The method, boiled down:
as §1

The test system of assay [5] is GalNAc(b1-3)Gal(a1-4)Gal(b1-4)GlcNAc. Summed up: as §1
The subject of assay [6] is GlcNAc(a1-4)Gal(b1-3)GlcNAc. The method, boiled down:
as §1

In assay [7] the test system is GlcNAc(a1-4)Gal(b1-4)GalNAc. The method, boiled down:
as §1

The subject of assay [8] is GlcNAc(a1-6)Gal(b1-4)GlcNAc. Summed up: as §1
A further assay deals with GlcA(b1-6)Gal. The method, boiled down:
as §1

The next assay concerns Glc(a1-6)Glc(a1-6)Glc. The method, boiled down: as §1
A further assay has as its system Glc(b1-4)Glc. The method, boiled down:
as §1

A further assay deals with GalNAc(b1-3)GalNAc. Summed up: as §1
In assay [9] the test system is GlcNAc(b1-2)Gal(b1-3)GalNAc. The method, boiled down:
as §1

Assay [10] has as its system GalNAc(b1-4)GlcNAc(b1-3)GalNAc(b1-4)GlcNAc. The method, boiled down:
as §1

In a further assay the test system is Glc(a1-4)Glc. The method, boiled down: as §1
The subject of a further assay is GlcA(b1-3)Gal. Summed up:
as §1

A further assay concerns GlcA(b1-3)GlcNAc. Summed up:
as §1

In assay [11] the test system is GlcNAc(a1-4)Gal(b1-4)GlcNAc(b1-3)Gal(b1-4)GlcNAc. The method, boiled down: as §1
The test system of assay [12] is GlcNAc(b1-2)Gal(b1-3)GlcNAc. Summed up:
as §1

For assay [13], the system named is GalNAc3S(b1-4)[Fuc(a1-3)]GlcNAc. Summed up: as §1

In the case of “CLEC-2 (Homo sapiens) (chain not printed)”, the “glycan array binding signal (z-score)” value is -0.07 in [1], 0.275 in assay [2], 1.21 in [3] and -0.061 in assay [4].
VWF (Homo sapiens) (chain not printed): the “glycan array binding signal (z-score)” value in assay [5] was -0.296.
For the substance “H-Ficolin (Homo sapiens) (chain not printed)”, the “glycan array binding signal (z-score)” value is 1.75 in [6], 5.6 in [7], 9.73 in assay [3] and 2.01 in assay [8].
For the substance “Galectin-8 C-terminal CRD (Homo sapiens) (chain not printed)”, the “glycan array binding signal (z-score)” value with GlcA(b1-6)Gal was -0.345.
As to “Angiogenin (Homo sapiens) (chain not printed)”, the results for the “glycan array binding signal (z-score)” value in the assay with Glc(a1-6)Glc(a1-6)Glc and in the assay on Glc(b1-4)Glc were 3.12 and 0.669, respectively.
Take “Gal 8 long (Homo sapiens) (chain not printed)”: the “glycan array binding signal (z-score)” value in the assay with GalNAc(b1-3)GalNAc was -0.16.
Turning to “M-Ficolin G221F A256V (Homo sapiens) (chain not printed)”, the “glycan array binding signal (z-score)” value was -0.008 in assay [7], -0.046 in assay [3] and -0.308 in assay [9].
Turning to “Thrombomodulin Extracellular (Homo sapiens) (chain not printed)”, the “glycan array binding signal (z-score)” value in assay [10] was -0.38; in the assay on Glc(a1-4)Glc it was 0.436; in the assay on GlcA(b1-3)Gal, 1.52; in the assay on GlcA(b1-3)GlcNAc, 0.078.
On to “Gal 8-short (Homo sapiens) (chain not printed)”, for which the “glycan array binding signal (z-score)” value with GlcA(b1-6)Gal is -0.703.
Regarding FGF2 (chain not printed), the results for the “glycan array binding signal (z-score)” value in assay [11], in [2] and in assay [3] were -0.491, -0.285 and 2, respectively.
With MBP (Homo sapiens) (chain not printed), the figures for the “glycan array binding signal (z-score)” value (in the assay with Glc(a1-6)Glc(a1-6)Glc; in [6]) were -0.249 and -0.412, respectively.
For the substance “Serum Amyloid P component (Homo sapiens) (chain not printed)”, the “glycan array binding signal (z-score)” value is -0.586 in assay [5], -0.311 in the assay on Glc(a1-4)Glc and -0.629 in [12].
On to “L-Ficolin (Homo sapiens) (chain not printed)”, for which the “glycan array binding signal (z-score)” value in the assay with GlcA(b1-3)GlcNAc was -0.399; in the assay with GlcA(b1-6)Gal, 0.4; in assay [1], 4.17; in [8] it was 5.31.
As to “NCAM1 (Homo sapiens) (chain not printed)”, the “glycan array binding signal (z-score)” value in the assay on GlcA(b1-3)GlcNAc was 5.9.
For the substance “Meso764 (Homo sapiens) (chain not printed)”, the “glycan array binding signal (z-score)” value in assay [13] was -0.535; in assay [3] it was 3.71.
“M-Ficolin (Homo sapiens) (chain not printed)”: the “glycan array binding signal (z-score)” value in the assay on GlcA(b1-3)Gal was -0.283; in [6] it was -0.182; in [9] it was -0.264.
As for “Gal 3 (Homo sapiens) (chain not printed)”, in [7], the “glycan array binding signal (z-score)” value is -0.108.
As for “M-Ficolin G221F (Homo sapiens) (chain not printed)”, in assay [7], the “glycan array binding signal (z-score)” value was -0.053.
Turning to “Siglec-2 (Homo sapiens) (chain not printed)”, the “glycan array binding signal (z-score)” value is -0.205 with GlcA(b1-3)GlcNAc, -0.197 in assay [1] and -0.182 in assay [11].
Turning to “M-Ficolin A256V (Homo sapiens) (chain not printed)”, in assay [5], the “glycan array binding signal (z-score)” value is -0.161.
Take “Collectin K1 (Homo sapiens) (chain not printed)”: the “glycan array binding signal (z-score)” value in assay [1] is -0.195.
